This is one part of the list.

The record followed here is the supplement of paper PMC11417369.

The subject of the experiment is PfAP2-HC AP2 domain (GST-tagged). Description: gcPBM binding intensity (ln(normalized median fluorescence intensity)); higher = stronger DNA binding. The method, boiled down: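 Binding intensity is defined as the maximum Masliner-normalised natural-log median intensity across replicate spots for either probe orientation. It was measured on an Agilent 4 × 180k array of primer-extended double-stranded 36-bp intergenic genomic probes and negative controls, to which GST-tagged P. falciparum DNA-binding domains made in E. coli were applied for 1 h in 1× PBS with 1% milk, 0.2 mg/ml BSA, 0.5% salmon testes DNA and 0.03% Triton X-100. Detection was by Alexa488 anti-GST antibody and scanning at 488 nm.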
For “GAAATAATAAATTAAAAATCGTTTATAACATTTAAC [CACACA_negctrl_site425]”, the “gcPBM binding intensity (ln)” value worked out at 9.57.

As for “ATTTTCTTTCTATGCACACGCACGTATTTGCACCCA [CACACA_site3350]”, the “gcPBM binding intensity (ln)” value came to 9.95.

Consider “CTTTTTTTTTGATGTTGTACATATATATTATATAAT [XGTACX_site1321]”, for which the “gcPBM binding intensity (ln)” value is 9.76.

For the sequence “GTATATAATATTAGTGCACACACAAAAATGTACTAA [CACACA_site8112]”, the “gcPBM binding intensity (ln)” value stood at 10.

As for “TGGGAGCACAGACACACACACACACCCATATATATA [CACACA_site335]”, the “gcPBM binding intensity (ln)” value came to 10.5.

In the case of “TACAAAATAAAAATAATTCTTTCAAAAAATAATAAA [XGTACX_negctrl_site368]”, the “gcPBM binding intensity (ln)” value was 9.44.

As to “TGCACATTTATGTAACGTACAAAATATAATATGTTA [XGTACX_site8255]”, the “gcPBM binding intensity (ln)” value came to 9.5.

For the sequence “TCCTTATATTGGCACACACACACAATAAAATGAAAA [CACACA_site4715]”, the “gcPBM binding intensity (ln)” value was 10.7.

Consider “GGTTGCTTCAGTGAATGTACATAGTGGTAAACAAGC [XGTACX_site166]”, for which the “gcPBM binding intensity (ln)” value amounted to 9.59.

Consider “GTATAAAAGTAATGTAGTACTTATATATTTTTATTT [XGTACX_site8975]”, for which the “gcPBM binding intensity (ln)” value was found to be 9.56.

For “AGTAATATAATATAAGCACACGTGTATTTATTTAGT [CACACA_site4246]”, the “gcPBM binding intensity (ln)” value came out at 10.1.

For the sequence “TGCTATATTATTATCGCACACCGTTGATTCTAAATA [CACACA_site1207]”, the “gcPBM binding intensity (ln)” value worked out at 9.72.

Regarding “CATTTATTTATATACACACACACAAAAAAAAAAAAA [CACACA_site7279]”, the “gcPBM binding intensity (ln)” value was 10.

In the case of “ATAAGTGTATAAAAATGTACGTGTATAAAAATATGT [XGTACX_site8235]”, the “gcPBM binding intensity (ln)” value was 9.89.

Regarding “AAAAAAAAAAGAAACACACACATATATATATATAAT [CACACA_site5052]”, the “gcPBM binding intensity (ln)” value stood at 10.1.

For “TATATATATTCTTTAAAACACACGTAAAGAAGAATT [CACACA_site2718]”, the “gcPBM binding intensity (ln)” value worked out at 9.63.

Turning to “ATATATGTTATTATTTGTACACACACATATATATCC [XGTACX_site7657]”, the “gcPBM binding intensity (ln)” value was found to be 10.1.

As to GAAAATTTATTTTTGGTGCATGTATTTATTTATTTT, the “gcPBM binding intensity (ln)” value is 9.71.

As to “ATTTCTAATATTTTTGCACACTAAACAATAAATTTC [CACACA_site3943]”, the “gcPBM binding intensity (ln)” value stood at 9.86.

In the case of “TTTTTAATTTAAAAAAATAATATTTTATATTCCGAA [CACACA_negctrl_site108]”, the “gcPBM binding intensity (ln)” value came out at 8.86.

As to “TATTTTTTATTTTTTTGTACATATTTGATAATTAAT [XGTACX_site316]”, the “gcPBM binding intensity (ln)” value was 9.62.

For the sequence “GTAAGCATCAAAAAAGGTACAGAAATTATAAATAAA [XGTACX_site6708]”, the “gcPBM binding intensity (ln)” value came to 9.57.

As to “AAATATTTATATATATGTACACATATAATATTTTTA [XGTACX_site2338]”, the “gcPBM binding intensity (ln)” value was found to be 9.52.

On to “GAATATAAAAGGAACGGTACAGAAAAAAAAAAAAAA [XGTACX_site3917]”, for which the “gcPBM binding intensity (ln)” value came to 9.48.

“TTTATTTTTTATATATCACTTAAAAAAAAAAAAAAA [CACACA_negctrl_site249]”: the “gcPBM binding intensity (ln)” value turned out to be 8.93.

On to “ATTTATATTTTATATACACACATGAACTTATATGGA [CACACA_site3167]”, for which the “gcPBM binding intensity (ln)” value worked out at 9.74.

“CTTTTTTTTTTATGCACACACAATTATACATTCCTT [CACACA_site3877]”: the “gcPBM binding intensity (ln)” value was 10.6.

For the sequence “AATATAGTCTCACATACACACATATATATTTATATA [CACACA_site2503]”, the “gcPBM binding intensity (ln)” value is 9.86.

As for “ATGTAATATATTATATGTACATATTTTTATGTAGAT [XGTACX_site5945]”, the “gcPBM binding intensity (ln)” value amounted to 9.76.

Turning to “AAAACAAATAAGTAAACACACATATATAATATATAT [CACACA_site2586]”, the “gcPBM binding intensity (ln)” value was 10.

On to “AAAAAAAAAAAAACTAGTACATATATATAGTATGAA [XGTACX_site6279]”, for which the “gcPBM binding intensity (ln)” value turned out to be 9.71.

As to “ATTATATTTGAATGGTGTACTATAATAATGTAGTTT [XGTACX_site8069]”, the “gcPBM binding intensity (ln)” value stood at 9.67.

For the sequence “ACATATATATATATATAAATATATATGTATGTATTT [XGTACX_negctrl_site237]”, the “gcPBM binding intensity (ln)” value is 9.55.

For the sequence “GAATAAATTAAATTCACACATAAAATACAAAATACA [CACACA_site5495]”, the “gcPBM binding intensity (ln)” value worked out at 9.89.

Consider “CATACACGCGGACACACACACACACGCATATATAAC [CACACA_site6427]”, for which the “gcPBM binding intensity (ln)” value amounted to 11.2.

Consider “CTTATATTAATTATTACACACATATATATAAATGCA [CACACA_site770]”, for which the “gcPBM binding intensity (ln)” value was 9.68.

Take “AAAGAAAATAGGTGTACACATAATAAATACAGCTAT [CACACA_site5917]”: the “gcPBM binding intensity (ln)” value is 10.4.

As for “ACAAGTGTATATGTTATATATATATATATATATATA [CACACA_negctrl_site1686]”, the “gcPBM binding intensity (ln)” value came out at 9.65.

Take “TACGTATTCATGTATAGTACTCTTTTTTTTAATAAA [XGTACX_site3299]”: the “gcPBM binding intensity (ln)” value is 9.33.

As for “TTATTACGAACTCTGCAACATATATAAATAAATAAA [CACACA_negctrl_site44]”, the “gcPBM binding intensity (ln)” value is 9.34.

As for “AAAATAATATTTAATACACACATAATTACAATATAA [CACACA_site6510]”, the “gcPBM binding intensity (ln)” value stood at 9.87.

On to “AAAGATAAAATATATACACACACATAAATACGTACA [CACACA_site8275]”, for which the “gcPBM binding intensity (ln)” value came to 10.8.

For “TACCTTTTTTATGTTGCACACTGGGATGTTTTCTAA [CACACA_site1653]”, the “gcPBM binding intensity (ln)” value is 9.95.

As for “ATTCATATTTTTCAAGTGCGCATTAAAATATTAACC [GTGCAC_site9741]”, the “gcPBM binding intensity (ln)” value amounted to 9.63.

With “ATGTCATATATATGTTGTACGAGTTTGTTTATGTAT [XGTACX_site1150]”, the “gcPBM binding intensity (ln)” value was 9.91.

As for “TTCATTTTATAAAAAGCACACATATAGTTATATGCA [CACACA_site9228]”, the “gcPBM binding intensity (ln)” value was determined as 9.58.

Consider “AGTTTACATTAAATCACGCACACAAAAAAAAAAAAA [CACACA_site2419]”, for which the “gcPBM binding intensity (ln)” value is 10.

Regarding “AATGTGCAGAAAAGTGGTACATATGATTGTTAAGAG [XGTACX_site1038]”, the “gcPBM binding intensity (ln)” value turned out to be 9.86.

For the sequence “CCATGATTATTAGATTGTACATAACATACAAATTGA [XGTACX_site314]”, the “gcPBM binding intensity (ln)” value was determined as 9.39.

Turning to “AATATATTTTTTTTTGGTACACAAGCACATCTATAC [XGTACX_site2183]”, the “gcPBM binding intensity (ln)” value worked out at 9.68.

For the sequence “TTTCGATTATGTTTTTGTACGCAATATATTAATTCT [XGTACX_site3634]”, the “gcPBM binding intensity (ln)” value is 9.64.

For the sequence “GTAGTAATAAATCTAGTGCATTATATATAACAAAAA [GTGCAC_site9803]”, the “gcPBM binding intensity (ln)” value amounted to 9.72.

“TTTTTTTCTTTTTTTTGTACTCATACATACTATCAT [XGTACX_site607]”: the “gcPBM binding intensity (ln)” value turned out to be 9.69.

Consider “AAAAATGTGCACACGCGTACACACAAAAAAAGAAAA [XGTACX_site4097]”, for which the “gcPBM binding intensity (ln)” value was determined as 10.2.

In the case of “AAAATATATCAAAATAGTACATAATTTTTTAAGAAT [XGTACX_site3515]”, the “gcPBM binding intensity (ln)” value is 9.63.

As for “AGTTATGCATCTTAGGTGCTATGCCCAATTTATTTT [GTGCAC_site9977]”, the “gcPBM binding intensity (ln)” value is 9.72.

Take “AAAAAAAAAAAAAATGCACACATATATTTCCATATA [CACACA_site8416]”: the “gcPBM binding intensity (ln)” value is 9.78.
